From PMC6919601, “Identification of Plasmodium dipeptidyl aminopeptidase allosteric inhibitors by high throughput screening” (PLoS ONE, 2019)
About 230 (0.21%) of roughly 110,000 compounds showed an effect of 50% or more. This is one part of the list.

Molecular target: DPAP1 (Plasmodium falciparum, UniProt Q8IIJ9)
Assay: primary screen, percent inhibition; read by cleavage of a fluorogenic dipeptide substrate; higher = more effect of the substance
Design: species or system P. falciparum D10 trophozoite lysates; single well
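Further: 30 min substrate incubation versus DMSO and 10 µM JCP410 controls.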

Sequence of DPAP1 (Q8IIJ9 whole entry, looked up): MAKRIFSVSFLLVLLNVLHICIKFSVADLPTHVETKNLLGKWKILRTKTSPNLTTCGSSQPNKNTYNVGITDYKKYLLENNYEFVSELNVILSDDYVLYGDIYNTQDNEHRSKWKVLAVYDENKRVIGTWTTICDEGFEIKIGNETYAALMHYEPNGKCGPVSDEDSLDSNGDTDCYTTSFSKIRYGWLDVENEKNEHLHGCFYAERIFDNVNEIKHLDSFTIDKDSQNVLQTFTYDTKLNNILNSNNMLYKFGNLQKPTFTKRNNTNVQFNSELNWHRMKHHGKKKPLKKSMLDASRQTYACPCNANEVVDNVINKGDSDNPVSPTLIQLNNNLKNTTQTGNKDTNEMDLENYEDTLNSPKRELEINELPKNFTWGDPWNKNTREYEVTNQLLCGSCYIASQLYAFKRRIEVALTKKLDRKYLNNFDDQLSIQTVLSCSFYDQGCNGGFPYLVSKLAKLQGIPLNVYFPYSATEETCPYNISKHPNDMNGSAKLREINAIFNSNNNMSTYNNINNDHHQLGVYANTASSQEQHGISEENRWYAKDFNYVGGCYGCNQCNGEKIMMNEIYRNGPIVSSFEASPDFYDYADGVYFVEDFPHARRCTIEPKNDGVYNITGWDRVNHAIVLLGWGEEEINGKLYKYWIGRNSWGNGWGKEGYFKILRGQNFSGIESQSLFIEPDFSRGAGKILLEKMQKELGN

Structure (SMILES)	% Inhibition @ 10 uM
CC(C)CCNc1nc2c(-c3ccc(Cl)cc3)nnn2c2ccccc12	-6.52%
CN1CCC(Nc2ccc3c[nH]nc3c2)CC1	-0.0953%
O=C1CC(Nc2ccc(F)cc2)C(=O)N1c1ccc(Br)cc1 (stereo not shown)	-5.31%
S=C1NCN(Cc2ccccc2)CN1Cc1ccccc1	1.52%
CCOc1ccc(-c2[nH]nc3c2C(c2ccncc2)C(C#N)=C(N)O3)c(OCC)c1 (stereo not shown)	-4.43%
Cc1nc2c3cccnc3nn2c(C)c1CCC(=O)NC1CCCCCC1	-3.45%
Brc1ccc(OCCCCCn2ccnc2)cc1	-2.54%
Cc1nc(NC(=O)c2ccc(C(C)C)cc2)sc1C(=O)N(C)C	0.389%
Nc1ccnc(C(F)(F)F)c1C(=O)c1ccccc1	-5.47%
CCCCc1ccc(NC(=O)C23CCC(C)(C(=O)C2=O)C3(C)C)cc1 (stereo not shown)	-2.53%
CCOC(=O)c1c(-c2ccc(Cl)cc2)nn2c1NCN(CCOC)C2	-1.08%
CCCc1[nH]nc2c1C(c1ccc3ccccc3c1)C(C#N)=C(N)O2 (stereo not shown)	-6.62%
Nc1cccc(C(=O)Nc2ccc(N)cc2Cl)c1	-2.91%
CCOC(=O)N1CCN(C(=O)CN(Cc2ccccc2)S(C)(=O)=O)CC1	-4.52%
O=C(CSc1nnc(CSc2nc3ccccc3s2)n1-c1ccccc1)NCc1ccco1	-4.97%
NS(=O)(=O)c1ccc(O)c2ccccc12	-4.26%
Cc1c(CNCCc2ccc(Cl)cc2)c(C(=O)O)c(C)n1Cc1ccccc1	1.41%
Cc1oc2ccc(O)c(CN3CCOCC3)c2c1C(C)O (stereo not shown)	2.86%
COc1ccc(C2C3=C(O)CC(C)(C)CC3=Nc3nc(SC)nc(N)c32)cc1OC (stereo not shown)	-2.56%
COc1ccccc1NC(=O)CCC1CCCC1	-0.872%
COc1ccc(C2CC(O)=C/C(=N/Cc3ccccc3)C2)cc1 (stereo not shown)	-4.98%
CCOC(=O)c1oc2ccc(S(=O)(=O)n3nc(-c4ccc(OC)cc4OC)cc3N)cc2c1C	5.77%
CC1CCN(C(=O)c2ccc(C(=O)N3CCC(C)CC3)cc2)CC1	-2.87%
Cc1cccc(-c2nc(-c3ccc(-c4ccccc4)cc3)c(-c3ccccc3)[nH]2)c1	-6.06%
Cc1ccccc1S(=O)(=O)Cc1ccc(C(=O)NCCC2=CCCCC2)o1	0.458%

Structure (SMILES)	% Inhibition @ 10 uM
O=C1c2ccccc2-c2onc3c(N4CCCC4)cc(N4CCCC4)c1c23	-2.8%
O=C(CN1N=C(c2ccccc2)CCC1=O)NCC1CCCO1 (stereo not shown)	-2.99%
CN(C)CCNc1cc(-c2ccccc2)nc2ccccc12	-3.44%
COCCNC(=O)c1ccc(CSc2nc3ccncc3n2Cc2ccc(F)cc2)cc1	-0.637%
Cn1c(=O)c2c(-c3ccc(Cl)cc3)n(-c3ccccc3Cl)cc2n(C)c1=O	0.366%
Cn1c(=O)c2c(-c3cccnc3)c(C#N)c(N)nc2n(C)c1=O	-0.0372%
O=C1N/C(=C\c2ccc(Br)s2)C(=O)N1Cc1ccc(Cl)cc1	-6.86%
CCOc1cc(/C=C2/NC(=O)N(CC(=O)Nc3cccc(C)c3)C2=O)ccc1O	2.86%
O=C(Nc1ccc(N2CCOCC2)cc1)c1cccc(Br)c1	-7.97%
CCC(N1C(=O)NC(NC(=O)c2ccc(OC)cc2)(C(F)(F)F)C1=O)C12CC3CC(CC(C3)C1)C2 (stereo not shown)	-4.35%
CC(C)(C)NC(=O)Cn1cc(C(=O)C2CCCCC2)c2ccccc21	2.1%
O=S(=O)(NCCSCc1ccco1)c1ccc(-c2cc(C(F)(F)F)no2)s1	-3.05%
NC(=O)c1ccccc1NC(=O)Nc1ccc(Cl)cc1	-2.42%
COCCn1c(C)cc(C(=O)C(=O)Nc2nnc(Cc3ccccc3F)s2)c1C	-1.06%
Nn1c2ccccc2c2ccccc21	-4.74%
CC1=CC2=NC(=O)/C(=C\c3cc(C)n(-c4ccccc4)c3C)C(=N)N2O1	2%
Cc1cccc(OCCSc2nc(-c3ccccc3)nc3cc(=O)[nH]n23)c1	1.28%
O=c1c(NCC2CCCO2)c(-c2ccccc2)c1=O (stereo not shown)	2.78%
CCCC(=O)c1c(Nc2ccc(OC)cc2)cc(C)oc1=O	-2.56%
O=C(NC1CCCC1)C1CCCN(S(=O)(=O)N2CCOCC2)C1 (stereo not shown)	0.616%
O=C(Cc1c(F)cccc1Cl)NCC1COc2ccccc2O1 (stereo not shown)	1.2%
Cc1ccc(C2C(=O)N(C3CCC(C)CC3)CC(=O)N2CCc2ccccc2)cc1 (stereo not shown)	5.99%
CCOc1cccc(-c2cc(C(=O)NCCCN3CCOCC3)c3ccccc3n2)c1	-8.36%
CC(c1ccccc1)n1cc2c(c1-c1ccc(Br)cc1)c(=O)n(C)c(=O)n2C (stereo not shown)	2.41%
